Counter-ions that a name gives are not always drawn. Like-named read-outs stand apart in the source and are kept apart here. Some values that stand alone complete this part of the results.
- melting point (free base): 223 to 224 °C
- melting point (mesylate salt): 230 to 231 °C
Compound: Cc1nc(C=Cc2nc3ccc(F)cc3c(=O)n2-c2cccnc2C)cs1 (as salt: mesylate)

From patent publication US6380204B1, “Atropisomers of 3-heteroaryl-4(3H)-quinazolinones for the treatment of neurodegenerative and CNS-trauma related conditions” (Pfizer INC, priority 1997, dated 2002)
